Reference: US20240076406A1, “SINGLE DOMAIN ANTIBODIES TARGETING CA-IX AS WELL AS COMPOSITIONS COMPRISING SAME” (National Research Council of Canada, priority 2021, published 2024)

B1: sdCA9-1-Fc: sdCA9-1-VHH in-frame fusion with human IgG1-Fc, SEQ ID NO: 16 (protein)
chain: EFATMEFGLSWVFLVAILKGVQCQVQLVESGGGLVQAGGSLRLSCAASGFTFDDWAIGWFRQAPGKEREGVSCISKRHGTTHYADSVKGRFTISSDNAKNTVYLRMNGLKPEDTAVYYCAASSWGSCTVATMRDVDRYDYDYWGQGTQVTVSSA[no letters for human IgG1 Fc]
modifications: Leader-sdCA9-1-VHH-Linker-hIgG1Fc
B2: sdCA9-1-VHH CAR: single binder chimeric antigen receptor construct with sdCA9-1-VHH antigen binding domain, SEQ ID NO: 37 (protein)
chain: MLRLLLALNLFPSIQVTGQVQLVESGGGLVQAGGSLRLSCAASGFTFDDWAIGWFRQAPGKEREGVSCISKRHGTTHYADSVKGRFTISSDNAKNTVYLRMNGLKPEDTAVYYCAASSWGSCTVATMRDVDRYDYDYWGQGTQVTVSSPSGGGGPSTTTPAPRPPTPAPTIASQPLSLRPEACRPAAGGAVHTRGLDFACDPSKPFWVLVVVGGVLACYSLLVTVAFIIFWVRKRGRKKLLYIFKQPFMRPVQTTQEEDGCSCRFPEEEEGGCELL[no letters for about 120 residues]
modifications: sdCA9-1-VHH CAR amino acid sequence, exemplary sequence for a single binder CAR construct
B3: sdCA9-2-Fc: sdCA9-2-VHH in-frame fusion with human IgG1-Fc, SEQ ID NO: 17 (protein)
chain: EFATMEFGLSWVFLVAILKGVQCQVKLEESGGDLVQPGGSLRLSCAASGFTLDYYAIGWFRQAPGKEREGVSCFSSVDGSTYYADSVKGRFTISRDNAKNMVYLQMNSLKPEDTAIYYCAAELYGELGVATVQAMCRLTTPGGDYWGQGTQVTVSSA[no letters for human IgG1 Fc]
modifications: Leader-sdCA9-2-VHH-Linker-hIgG1Fc

Columns and labels:
[1] = tested on: SKRC59 and SKRC52 cell lines (low and high levels of hCA-IX); test: Cell binding assay, plate format; assay type: cell-based, human; conditions: mean fluorescent intensity per cell area; cell line of Table 3 not stated
Experimental: Cell binding assays were performed using a plate-based format, binding was expressed as the mean fluorescent intensity per cell area. (control IgG (●), cG250 (▪), sdCA9-1-Fc (▴), and sdCA9-2-Fc (▾)). KD values were determined by plotting fluorescent intensity measured for each condition of the sdCA9-Fc antibodies using Graphpad Prism. cG250 full sized antibody (FSA) and isotype matching IgG FSA were used as bench mark and negative control, respectively.
Cell binding. […] These cell lines have been used in the literature for the screening of scFv Abs for binding to hCA-IX (Xu et al. 2010). KD values were determined to be in the low nanomolar range, the clinically used cG250 full sized antibody (FSA) was used as a bench mark. An isotype matching hIgG was used as negative control (FIG. 5).

[2] = tested on: CAIX expressing SKRC52 target cells; test: In vitro CAR-Jurkat (CAR-J) assay, CAIX-positive target cells; assay type: cell-based, human; conditions: Jurkat cells electroporated with CAR plasmid, co-culture with SKRC52; flow cytometry; CD19-CAR control
Experimental: FIG. 13 Depicts the results of CAR-Jurkat activity assay wherein Jurkat cells were transiently electroporated with sdCA9-1-VHH, sdCA9-2-VHH CAR or an irrelevant target CD19 CAR plasmid as a control and cultured either alone or in co-culture with CAIX-positive (SKRC52 cell line) or CAIX-negative (SKOV3) cell lines. The level of T cell activation was measured using human CD69-specific antibody staining and flow cytometry. Graphs depict the mean fluorescent intensity for CD69-staining for each single domain antibody targeted CAR constructs performed in a single experiment in duplicate, either in culture with no target cells (first bar), CAIX negative SKOV3 target cells (second bar), or CAIX positive SKRC52 target cells (third bar). Error bars show the standard error of the mean for duplicate wells.
In vitro CAR-Jurkat (CAR-J) assay: CAIX-targeting CAR constructs were then tested for activity in an immortalized human T cell line (Jurkat) as described in Bloemberg et al., 2020. In brief, plasmids were electroporated into Jurkat T cells and allowed to recover for several hours. […] In order to measure CAR-mediated Jurkat cell activation, expression of CD69 was measured using specific antibody staining and flow cytometry. Using expression of GFP-marker to gate CAR-expressing cells, the level of T cell activation was determined using the CD69-surface marker. […]

Molecule	Bmax (best-fit value, one site specific binding) [1]	T cell activation, CD69 fluorescent intensity [2]
B1	264.7	–
B2	–	CAIX-specific response
B3	311.9	–
